This is an account of results in publication PMC3332055.

Sequences of proteins named here, by UniProt entry; tags and fusion partners are left off.
UniProt P22415: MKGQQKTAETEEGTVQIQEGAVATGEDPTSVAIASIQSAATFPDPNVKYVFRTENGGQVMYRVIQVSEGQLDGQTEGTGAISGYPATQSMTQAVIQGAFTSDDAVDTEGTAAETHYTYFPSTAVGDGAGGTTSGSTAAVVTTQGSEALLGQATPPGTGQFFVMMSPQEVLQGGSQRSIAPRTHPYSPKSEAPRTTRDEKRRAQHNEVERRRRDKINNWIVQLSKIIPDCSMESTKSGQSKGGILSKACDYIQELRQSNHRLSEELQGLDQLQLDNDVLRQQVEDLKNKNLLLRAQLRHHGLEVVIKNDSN
UniProt Q15853: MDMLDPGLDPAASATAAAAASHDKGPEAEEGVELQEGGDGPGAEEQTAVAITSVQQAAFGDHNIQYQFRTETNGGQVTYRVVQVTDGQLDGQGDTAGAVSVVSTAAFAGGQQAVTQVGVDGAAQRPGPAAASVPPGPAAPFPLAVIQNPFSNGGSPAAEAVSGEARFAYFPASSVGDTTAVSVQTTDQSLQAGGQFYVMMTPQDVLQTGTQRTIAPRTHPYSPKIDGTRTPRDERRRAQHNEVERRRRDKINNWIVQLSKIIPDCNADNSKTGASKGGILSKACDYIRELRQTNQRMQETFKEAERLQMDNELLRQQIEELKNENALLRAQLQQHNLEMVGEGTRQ
UniProt P25490: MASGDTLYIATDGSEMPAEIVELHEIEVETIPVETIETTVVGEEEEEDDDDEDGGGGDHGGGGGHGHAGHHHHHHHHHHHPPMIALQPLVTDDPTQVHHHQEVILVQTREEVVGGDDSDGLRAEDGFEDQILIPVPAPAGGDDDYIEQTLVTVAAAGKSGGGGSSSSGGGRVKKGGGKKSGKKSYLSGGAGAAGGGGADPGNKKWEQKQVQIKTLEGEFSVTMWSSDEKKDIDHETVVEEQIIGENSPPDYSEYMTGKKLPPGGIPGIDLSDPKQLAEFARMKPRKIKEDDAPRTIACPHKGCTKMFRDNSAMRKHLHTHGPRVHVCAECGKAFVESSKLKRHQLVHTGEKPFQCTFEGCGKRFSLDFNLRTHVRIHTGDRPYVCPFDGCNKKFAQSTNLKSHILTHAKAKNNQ
UniProt P23511: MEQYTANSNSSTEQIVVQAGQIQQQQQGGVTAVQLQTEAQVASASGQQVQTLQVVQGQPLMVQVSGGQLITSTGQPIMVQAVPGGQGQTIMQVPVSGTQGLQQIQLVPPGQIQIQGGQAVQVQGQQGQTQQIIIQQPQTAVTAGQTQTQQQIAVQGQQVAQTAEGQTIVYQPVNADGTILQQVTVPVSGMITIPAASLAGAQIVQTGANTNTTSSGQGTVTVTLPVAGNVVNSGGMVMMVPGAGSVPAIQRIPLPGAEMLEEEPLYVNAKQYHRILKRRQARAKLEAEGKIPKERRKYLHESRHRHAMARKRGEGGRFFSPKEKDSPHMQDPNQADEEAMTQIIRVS
UniProt Q09472: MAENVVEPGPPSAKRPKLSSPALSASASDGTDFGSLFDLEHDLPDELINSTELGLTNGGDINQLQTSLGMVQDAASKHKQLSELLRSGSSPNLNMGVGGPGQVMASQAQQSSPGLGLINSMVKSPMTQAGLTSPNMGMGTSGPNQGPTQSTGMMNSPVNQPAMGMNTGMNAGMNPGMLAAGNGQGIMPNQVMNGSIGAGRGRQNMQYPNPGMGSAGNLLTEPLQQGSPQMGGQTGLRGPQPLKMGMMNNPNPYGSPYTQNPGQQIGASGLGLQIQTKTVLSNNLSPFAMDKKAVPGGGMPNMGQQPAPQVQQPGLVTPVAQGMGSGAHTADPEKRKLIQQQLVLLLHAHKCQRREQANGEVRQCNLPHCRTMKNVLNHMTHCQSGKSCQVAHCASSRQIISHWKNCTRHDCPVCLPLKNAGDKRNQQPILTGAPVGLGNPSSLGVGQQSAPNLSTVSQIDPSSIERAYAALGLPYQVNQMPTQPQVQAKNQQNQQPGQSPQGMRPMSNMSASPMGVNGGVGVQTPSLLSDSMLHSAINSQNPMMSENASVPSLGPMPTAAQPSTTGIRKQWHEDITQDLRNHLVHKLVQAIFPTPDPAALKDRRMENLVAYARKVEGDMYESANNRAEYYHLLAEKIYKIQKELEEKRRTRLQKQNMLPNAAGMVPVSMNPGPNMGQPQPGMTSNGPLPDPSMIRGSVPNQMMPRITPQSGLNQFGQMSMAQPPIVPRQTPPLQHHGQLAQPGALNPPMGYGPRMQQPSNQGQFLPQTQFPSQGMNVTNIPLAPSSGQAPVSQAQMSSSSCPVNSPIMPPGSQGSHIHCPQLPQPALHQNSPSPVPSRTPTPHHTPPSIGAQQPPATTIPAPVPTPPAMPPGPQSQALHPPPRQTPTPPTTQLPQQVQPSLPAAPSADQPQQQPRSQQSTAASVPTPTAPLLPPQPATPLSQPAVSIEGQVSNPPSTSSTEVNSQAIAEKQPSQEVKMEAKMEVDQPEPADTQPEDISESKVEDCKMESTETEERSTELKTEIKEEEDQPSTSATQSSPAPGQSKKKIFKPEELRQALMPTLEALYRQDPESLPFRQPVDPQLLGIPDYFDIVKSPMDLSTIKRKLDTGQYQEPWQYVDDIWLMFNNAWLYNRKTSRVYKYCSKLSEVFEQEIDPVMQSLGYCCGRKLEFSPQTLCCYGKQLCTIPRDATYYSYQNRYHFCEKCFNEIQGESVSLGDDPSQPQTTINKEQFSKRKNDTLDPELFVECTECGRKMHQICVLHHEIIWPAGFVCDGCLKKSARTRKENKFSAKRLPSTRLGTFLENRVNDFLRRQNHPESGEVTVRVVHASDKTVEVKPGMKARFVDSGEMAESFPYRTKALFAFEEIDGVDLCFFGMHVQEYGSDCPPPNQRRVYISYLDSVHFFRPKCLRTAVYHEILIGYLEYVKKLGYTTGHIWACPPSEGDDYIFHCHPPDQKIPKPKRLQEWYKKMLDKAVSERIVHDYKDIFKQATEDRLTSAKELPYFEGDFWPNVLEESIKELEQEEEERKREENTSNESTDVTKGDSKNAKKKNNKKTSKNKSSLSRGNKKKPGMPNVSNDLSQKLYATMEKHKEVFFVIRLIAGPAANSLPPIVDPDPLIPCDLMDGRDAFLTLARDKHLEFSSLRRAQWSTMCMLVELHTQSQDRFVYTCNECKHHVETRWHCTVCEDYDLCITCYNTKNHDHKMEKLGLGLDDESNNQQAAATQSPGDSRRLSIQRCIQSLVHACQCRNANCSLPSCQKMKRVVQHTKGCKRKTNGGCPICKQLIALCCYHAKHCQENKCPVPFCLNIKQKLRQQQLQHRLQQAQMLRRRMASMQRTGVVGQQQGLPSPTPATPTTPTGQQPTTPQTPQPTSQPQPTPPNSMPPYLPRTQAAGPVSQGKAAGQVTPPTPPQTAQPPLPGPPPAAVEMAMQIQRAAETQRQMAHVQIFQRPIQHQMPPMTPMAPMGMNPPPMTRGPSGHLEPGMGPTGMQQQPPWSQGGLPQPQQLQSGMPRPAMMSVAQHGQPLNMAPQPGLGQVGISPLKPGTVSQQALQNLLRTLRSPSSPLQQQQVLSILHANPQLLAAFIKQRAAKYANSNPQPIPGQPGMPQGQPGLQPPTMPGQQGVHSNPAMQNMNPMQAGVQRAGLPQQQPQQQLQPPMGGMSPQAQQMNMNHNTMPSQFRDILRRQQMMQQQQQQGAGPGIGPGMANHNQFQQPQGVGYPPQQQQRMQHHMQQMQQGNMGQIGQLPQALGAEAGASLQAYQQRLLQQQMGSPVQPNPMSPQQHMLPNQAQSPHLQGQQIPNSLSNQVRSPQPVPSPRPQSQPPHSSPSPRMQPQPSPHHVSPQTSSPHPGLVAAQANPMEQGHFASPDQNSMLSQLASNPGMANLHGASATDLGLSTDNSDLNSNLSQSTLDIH

Results are given in words; binding and its absence hold for the method and conditions named. Binding seen in cells or lysates may run through a third protein. Some entries that bind do so weakly or less than the wild type.

Common to all, as to test: co-IP; HeLa cell lysate, endogenous proteins; 2 µg of antibody (YY1, USF1, USF2, NF-YA or NF-YB) and protein G plus-agarose beads overnight; washed with lysis buffer containing 0.5 M NaCl; immunoblot with anti-p300 antibody
On the technique in general: In western blotting, separated proteins are transferred to a membrane and probed.

Experiment [1] addresses Upstream Stimulating Factor 1 (USF1) (human (endogenous in HeLa)) (UniProt P22415).
The target of experiment [2] is T1, Nuclear Factor-Y subunit B (NF-YB) (human (endogenous in HeLa)) (UniProt P25208).
T1 sequence: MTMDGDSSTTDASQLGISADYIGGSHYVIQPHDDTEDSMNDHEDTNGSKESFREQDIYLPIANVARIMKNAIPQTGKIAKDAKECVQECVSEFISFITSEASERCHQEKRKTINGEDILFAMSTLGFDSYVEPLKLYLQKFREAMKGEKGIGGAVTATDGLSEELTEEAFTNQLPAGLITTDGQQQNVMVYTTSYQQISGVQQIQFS

Experiment [3] deals with Upstream Stimulating Factor 2 (USF2) (human (endogenous in HeLa)) (UniProt Q15853).
For experiment [4], the target named is Yin Yang-1 (YY1) (human (endogenous in HeLa)) (UniProt P25490).
The target in experiment [5] is Nuclear Factor-Y subunit A (NF-YA) (human (endogenous in HeLa)) (UniProt P23511).

As for “p300 co-activator (from UniProt Q09472 1-2414)”, the binding result in experiment [1] is “no binding”; in experiment [2] it was “binds”; in experiment [3] it was “binds”; in experiment [4], “binds”; in experiment [5] it was “no binding”.
